Among the data in the antibiotic and cytotoxicity screens of Wong et al. (2023) are cytotoxicity call and growth inhibition call values, retold here.

The other results are listed elsewhere or left out.

For assay [1], the system named is HSkMC (human skeletal muscle cells). The assay can be described thus: cytotoxicity call (relative viability < 0.9). The following applies: 10 µM.
The test system of assay [2] is HepG2. The assay can be described thus: cytotoxicity call (relative viability < 0.9). The following applies: 10 µM.
In assay [3] the test system is S. aureus RN4220. The assay can be described thus: growth inhibition call (relative growth <= 0.2). The following applies: 50 µM.

On to `C[C@@H]1CCCCO[C@H](CN(C)C(=O)Nc2cccc3ccccc23)[C@@H](C)CN([C@@H](C)CO)C(=O)c2cc(NS(=O)(=O)c3cn(C)cn3)ccc2O1`, for which the cytotoxicity call in assay [1] and in assay [2] was “inactive” throughout. In assay [3], the growth inhibition call was “inactive”.
As for `O=C(C[C@H]1C=C[C@H](NC(=O)c2cnccn2)[C@@H](CO)O1)NCc1ccccc1F`, the cytotoxicity call in assay [1] and in assay [2] was “inactive” in each case. Besides, the growth inhibition call in assay [3] is “inactive”.
As to `Cc1noc(C)c1NC(=O)Nc1cccc2c1O[C@@H](CN(C)C(=O)NC(C)C)[C@@H](C)CN([C@@H](C)CO)C2=O`, the cytotoxicity call in assay [1] and in assay [2] was “inactive” each time. Moreover, the growth inhibition call in assay [3] was “inactive”.
`Cc1noc(C)c1S(=O)(=O)/N=C/N(C)C`: the cytotoxicity call in assay [1] and in assay [2] was “inactive” in each case. For the same molecule, the growth inhibition call in assay [3] is “inactive”.
For `C[C@H](CO)N1C[C@H](C)[C@@H](CN(C)C(=O)NC2CCCCC2)Oc2ccc(NS(C)(=O)=O)cc2CC1=O`, the cytotoxicity call in assay [1] and in assay [2] was “inactive” in each case. For the same molecule, in assay [3], the growth inhibition call was “inactive”.
With `C=CC[C@@H](CC(=O)N[C@@H](CO)Cc1ccccc1)C(=O)N[C@H](C)COC(=O)[C@@H](CC=C)CC(=O)OC(C)(C)C`, the cytotoxicity call in assay [1] and in assay [2] was “inactive” each time. Besides, in assay [3], the growth inhibition call was “inactive”.
Regarding `C[C@@H]1CCCCO[C@H](CN(C)S(=O)(=O)c2ccccc2)[C@@H](C)CN([C@H](C)CO)C(=O)c2cc(NC(=O)Nc3ccc(C(F)(F)F)cc3)ccc2O1`, the cytotoxicity call in assay [1] is “inactive”. Further, the cytotoxicity call in assay [2] is “active”. Also, in assay [3], the growth inhibition call was “inactive”.
In the case of `C[C@@H]1CN([C@H](C)CO)C(=O)Cc2cc(NC(=O)Nc3ccc(C(F)(F)F)cc3)ccc2O[C@H]1CN(C)C(=O)Nc1ccc(C(F)(F)F)cc1`, in assay [1], the cytotoxicity call was “active”. Further, the cytotoxicity call in assay [2] was “inactive”. The growth inhibition call in assay [3] was “inactive”.
On to `Cc1noc(C)c1NC(=O)N(C)C[C@H]1OCCCC[C@H](C)Oc2ccc(NS(=O)(=O)c3cccs3)cc2C(=O)N([C@H](C)CO)C[C@@H]1C`, for which the cytotoxicity call in assay [1] and in assay [2] was “inactive” throughout. The growth inhibition call in assay [3] was “inactive”.
`C=CC1=C(C)C(=Cc2[nH]c(Cc3[nH]c(C=C4NC(=O)C(C)=C4C=C)c(C)c3CCC(=O)O)c(CCC(=O)O)c2C)NC1=O`: the cytotoxicity call in assay [1] and in assay [2] was “inactive” in each case. Besides, the growth inhibition call in assay [3] is “inactive”.
With `COc1ccc(NC(=O)N(C)C[C@H]2OCCCC[C@@H](C)Oc3ccc(NC(=O)Nc4ccccc4)cc3C(=O)N([C@H](C)CO)C[C@@H]2C)cc1`, the cytotoxicity call in assay [1] was “inactive”. Besides, the cytotoxicity call in assay [2] was “active”. For the same molecule, the growth inhibition call in assay [3] is “inactive”.
In the case of `Cc1ccc(S(=O)(=O)N2C[C@H](O)COC[C@@H]3O[C@H](CC(=O)NCc4ccc(Cl)c(Cl)c4)CC[C@H]32)cc1`, in assay [1], the cytotoxicity call was “inactive”. The cytotoxicity call in assay [2] was “active”. Further, the growth inhibition call in assay [3] was “inactive”.
With `O=C(O)c1ccc2c(c1)OCO2`, the cytotoxicity call in assay [1] and in assay [2] was “inactive” each time. The growth inhibition call in assay [3] was “inactive”.
For the molecule `CO[C@H]1C[C@@H](C[C@@H](C)[C@H]2CC(=O)[C@H](C)/C=C(\C)[C@@H](O)[C@H](OC)C(=O)[C@H](C)C[C@H](C)/C=C/C=C\C=C(C)[C@H](OC)C[C@@H]3CC[C@@H](C)[C@@](O)(O3)C(=O)C(=O)N3CCCC[C@H]3C(=O)O2)CC[C@H]1OC(=O)C(C)(CO)CO`, the cytotoxicity call in assay [1] is “inactive”. For the same molecule, the cytotoxicity call in assay [2] is “active”. For the same molecule, the growth inhibition call in assay [3] was “inactive”.
Take `C[C@@H]1CCCCO[C@@H](CN(C)C(=O)NC2CCCCC2)[C@@H](C)CN([C@H](C)CO)C(=O)c2cc(NS(=O)(=O)c3cccs3)ccc2O1`: the cytotoxicity call in assay [1] and in assay [2] was “inactive” in each case. Also, the growth inhibition call in assay [3] was “inactive”.
`C[C@@H]1CCCCO[C@H](CN(C)C(=O)Nc2ccc(C(F)(F)F)cc2)[C@@H](C)CN([C@H](C)CO)C(=O)c2cc(NC(=O)c3ccncc3)ccc2O1`: the cytotoxicity call in assay [1] and in assay [2] was “inactive” throughout. For the same molecule, the growth inhibition call in assay [3] is “inactive”.
As to `O=C(C[C@@H]1C=C[C@@H](NC(=O)c2cnccn2)[C@@H](CO)O1)NCc1ccccc1F`, the cytotoxicity call in assay [1] and in assay [2] was “inactive” each time. Also, in assay [3], the growth inhibition call is “inactive”.
On to `COCCNC(=O)C[C@@H]1C[C@H]2c3cc(NC(=O)COC)ccc3O[C@H]2[C@H](CO)O1`, for which the cytotoxicity call in assay [1] and in assay [2] was “inactive” each time. In assay [3], the growth inhibition call is “inactive”.
Consider `Cc1ccc(S(=O)(=O)Nc2ccc3c(c2)C(=O)N([C@@H](C)CO)C[C@@H](C)[C@@H](CN(C)S(=O)(=O)c2ccccc2)O3)cc1`, for which the cytotoxicity call in assay [1] and in assay [2] was “inactive” in each case. The growth inhibition call in assay [3] was “inactive”.
In the case of `Cc1noc(C)c1S(=O)(=O)Nc1ccc2c(c1)C(=O)N([C@@H](C)CO)C[C@H](C)[C@@H](CN(C)S(=O)(=O)c1cn(C)cn1)OCCCC[C@@H](C)O2`, the cytotoxicity call in assay [1] and in assay [2] was “inactive” in each case. Further, the growth inhibition call in assay [3] was “inactive”.
With `c1nc(N2CCOCC2)nc(N2CCOCC2)n1`, the cytotoxicity call in assay [1] and in assay [2] was “inactive” in each case. The growth inhibition call in assay [3] was “inactive”.
For `C[C@H](CO)N1C[C@H](C)[C@H](CN(C)S(=O)(=O)c2cccc(C#N)c2)OCc2cnnn2CCCC1=O`, the cytotoxicity call in assay [1] and in assay [2] was “inactive” each time. The growth inhibition call in assay [3] is “inactive”.
For `Cc1noc(C)c1S(=O)(=O)N(C)C[C@@H]1Oc2c(NC(=O)C3CCCCC3)cccc2C(=O)N([C@H](C)CO)C[C@@H]1C`, the cytotoxicity call in assay [1] and in assay [2] was “inactive” in each case. Besides, the growth inhibition call in assay [3] was “inactive”.
In the case of `C[C@H]1CCCCO[C@H](CN(C)CC2CCCCC2)[C@@H](C)CN([C@@H](C)CO)C(=O)c2cc(NS(=O)(=O)c3cccs3)ccc2O1`, the cytotoxicity call in assay [1] and in assay [2] was “inactive” throughout. In addition, in assay [3], the growth inhibition call is “inactive”.
With `COc1ccc(S(=O)(=O)N(C)C[C@@H]2Oc3ccc(NS(=O)(=O)c4ccc(C)cc4)cc3C(=O)N([C@@H](C)CO)C[C@@H]2C)cc1`, the cytotoxicity call in assay [1] and in assay [2] was “inactive” each time. In addition, in assay [3], the growth inhibition call was “inactive”.
For `Cc1noc(C)c1S(=O)(=O)Nc1ccc2c(c1)CC(=O)N([C@H](C)CO)C[C@@H](C)[C@H](CN(C)CC1CC1)O2`, the cytotoxicity call in assay [1] and in assay [2] was “inactive” throughout. Moreover, the growth inhibition call in assay [3] was “inactive”.
